# Laboratory results from the supplement of paper PMC8728848.
# Some of the results follow.
# Tests used:
# Experiment in all cases: glycan array binding signal (z-score within array); higher = stronger binding
# Settings in all cases: glycan notation: IUPAC condensed, linker removed
# [1] = target: GlcNAc(b1-3)Gal(b1-4)GlcNAc(b1-3)Gal(b1-4)GlcNAc(b1-3)Gal(b1-4)GlcNAc(b1-3)Gal(b1-4)GlcNAc(b1-2)[GlcNAc(b1-3)Gal(b1-4)GlcNAc(b1-3)Gal(b1-4)GlcNAc(b1-3)Gal(b1-4)GlcNAc(b1-3)Gal(b1-4)GlcNAc(b1-6)]Man(a1-6)[GlcNAc(b1-3)Gal(b1-4)GlcNAc(b1-3)Gal(b1-4)GlcNAc(b1-3)Gal(b1-4)GlcNAc(b1-3)Gal(b1-4)GlcNAc(b1-2)Man(a1-3)]Man(b1-4)GlcNAc(b1-4)[Fuc(a1-6)]GlcNAc
# How it was run: (§1)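 Glycan array binding is given as a within-array Z-score, which can be read as non-binding when negative. The arrays, 3228 of them, came from the Consortium for Functional Glycomics database and were retained only where the protein sequence was available. Z-scores were averaged across arrays of the same protein sequence at different concentrations or buffers and across linkers.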
# [2] = target: GlcNAc(b1-3)Gal(b1-4)GlcNAc(b1-3)Gal(b1-4)GlcNAc(b1-3)GalNAc
# How it was run: as §1
# [3] = target: GlcNAc(b1-3)Gal(b1-4)GlcNAc(b1-3)GalNAc
# How it was run: as §1
# [4] = target: GlcNAc(b1-3)Gal(b1-4)GlcNAc(b1-3)[GlcNAc(b1-3)Gal(b1-4)GlcNAc(b1-3)]GalNAc
# How it was run: as §1
# [5] = target: GlcNAc(b1-3)Gal(b1-4)GlcNAc(b1-6)[Gal(b1-3)]GalNAc
# How it was run: as §1
# [6] = target: GlcNAc(b1-3)Gal(b1-4)GlcNAc(b1-6)[GlcNAc(b1-3)Gal(b1-3)]GalNAc
# How it was run: as §1
# [7] = target: GlcNAc(b1-3)Gal(b1-4)GlcNAc(b1-6)[GlcNAc(b1-3)]Gal(b1-4)GlcNAc
# How it was run: as §1
# GlcNAc(b1-3)GalNAc = target: GlcNAc(b1-3)GalNAc
# How it was run: as §1
# GlcNAc(b1-3)Man = target: GlcNAc(b1-3)Man
# How it was run: as §1
# [8] = target: GlcNAc(b1-3)[GlcNAc(b1-4)][GlcNAc(b1-6)]GlcNAc
# How it was run: as §1
# [9] = target: GlcNAc(b1-3)[GlcNAc(b1-6)]Gal(b1-4)GlcNAc
# How it was run: as §1
# [10] = target: GlcNAc(b1-3)[GlcNAc(b1-6)]GalNAc
# How it was run: as §1
# [11] = target: GlcNAc(b1-4)Gal(b1-4)GlcNAc
# How it was run: as §1
# GlcNAc(b1-4)GlcNAc = target: GlcNAc(b1-4)GlcNAc
# How it was run: as §1
# [12] = target: GlcNAc(b1-4)GlcNAc(b1-4)GlcNAc
# How it was run: as §1
# [13] = target: GlcNAc(b1-4)GlcNAc(b1-4)GlcNAc(b1-4)GlcNAc(b1-4)GlcNAc
# How it was run: as §1
# [14] = target: GlcNAc(b1-4)GlcNAc(b1-4)GlcNAc(b1-4)GlcNAc(b1-4)GlcNAc(b1-4)GlcNAc
# How it was run: as §1
# [15] = target: GlcNAc(b1-4)[GlcNAc(b1-6)]GalNAc
# How it was run: as §1
# [16] = target: GlcNAc(b1-6)Gal(b1-4)GlcNAc
# How it was run: as §1
# GlcNAc(b1-6)GalNAc = target: GlcNAc(b1-6)GalNAc
# How it was run: as §1
# [17] = target: GlcNAc6S(b1-3)Gal(b1-4)GlcNAc
# How it was run: as §1
# Kdn(a2-3)Gal(b1-3)GalNAc = target: Kdn(a2-3)Gal(b1-3)GalNAc
# How it was run: as §1
# Kdn(a2-3)Gal(b1-3)GlcNAc = target: Kdn(a2-3)Gal(b1-3)GlcNAc
# How it was run: as §1
# Kdn(a2-3)Gal(b1-4)Glc = target: Kdn(a2-3)Gal(b1-4)Glc
# How it was run: as §1
# Kdn(a2-3)Gal(b1-4)GlcNAc = target: Kdn(a2-3)Gal(b1-4)GlcNAc
# How it was run: as §1
# [18] = target: Kdn(a2-3)Gal(b1-4)[Fuc(a1-3)]GlcNAc
# How it was run: as §1
# Kdn(a2-6)Gal(b1-4)GlcNAc = target: Kdn(a2-6)Gal(b1-4)GlcNAc
# How it was run: as §1
# [19] = target: Man(a1-2)Man(a1-2)Man(a1-3)Man
# How it was run: as §1
# [20] = target: Man(a1-2)Man(a1-2)Man(a1-6)[Man(a1-3)]Man
# How it was run: as §1
# Man(a1-2)Man(a1-3)Man = target: Man(a1-2)Man(a1-3)Man
# How it was run: as §1
# [21] = target: Man(a1-2)Man(a1-3)[Man(a1-2)Man(a1-6)]Man
# How it was run: as §1
# [22] = target: Man(a1-2)Man(a1-3)[Man(a1-2)Man(a1-6)]Man(a1-6)[Man(a1-2)Man(a1-2)Man(a1-3)]Man
# How it was run: as §1
# [23] = target: Man(a1-2)Man(a1-3)[Man(a1-2)Man(a1-6)]Man(a1-6)[Man(a1-2)Man(a1-2)Man(a1-3)]Man(b1-4)GlcNAc(b1-4)GlcNAc
# How it was run: as §1
# [24] = target: Man(a1-2)Man(a1-3)[Man(a1-6)]Man(a1-6)[Man(a1-2)Man(a1-3)]Man(b1-4)GlcNAc(b1-4)GlcNAc
# How it was run: as §1
# [25] = target: Man(a1-2)Man(a1-6)[Man(a1-3)]Man(a1-6)[Man(a1-2)Man(a1-2)Man(a1-3)]Man
# How it was run: as §1
# [26] = target: Man(a1-2)Man(a1-6)[Man(a1-3)]Man(a1-6)[Man(a1-2)Man(a1-2)Man(a1-3)]Man(b1-4)GlcNAc(b1-4)GlcNAc
# How it was run: as §1
# Man(a1-3)[Man(a1-6)]Man = target: Man(a1-3)[Man(a1-6)]Man
# How it was run: as §1
# [27] = target: Man(a1-3)[Man(a1-6)]Man(a1-6)[Man(a1-2)Man(a1-3)]Man(b1-4)GlcNAc(b1-4)GlcNAc
# How it was run: as §1
# [28] = target: Man(a1-3)[Man(a1-6)]Man(a1-6)[Man(a1-3)]Man
# How it was run: as §1
# [29] = target: Man(a1-3)[Man(a1-6)]Man(a1-6)[Man(a1-3)]Man(b1-4)GlcNAc(b1-4)GlcNAc
# How it was run: as §1
# [30] = target: Man(a1-3)[Man(a1-6)]Man(b1-4)GlcNAc(b1-4)GlcNAc
# How it was run: as §1
# [31] = target: Man(a1-3)[Man(a1-6)]Man(b1-4)GlcNAc(b1-4)[Fuc(a1-6)]GlcNAc
# How it was run: as §1
# Man(a1-6)Man = target: Man(a1-6)Man
# How it was run: as §1
# Man(b1-4)GlcNAc = target: Man(b1-4)GlcNAc
# How it was run: as §1
# MurNAc(b1-4)GlcNAc = target: MurNAc(b1-4)GlcNAc
# How it was run: as §1
binder,measurement,setting,value
"HA-11100 (Pseudomonas aeruginosa), Q02G51_PSEAB (protein) QFNPNEIKISQQGKTTLIDQSTQRAIINWKGFDVSADEAVRFNQPGVTSSTLNRVTAGQESVIAGRISAPGQVIIYNSNGVVFSGSAKVDVGSLITTTANISDEHFRQGKLIFDQPGNPDARIVNDGSISVAEKGLAAFVAPSVANNGVINARLGTVAMAAGNAATIDLYG",glycan array binding signal (z-score),[1],-0.474
same,glycan array binding signal (z-score),[2],-0.437
same,glycan array binding signal (z-score),[3],-0.068
same,glycan array binding signal (z-score),[4],-0.292
same,glycan array binding signal (z-score),[5],-0.237
same,glycan array binding signal (z-score),[6],-0.263
same,glycan array binding signal (z-score),[7],-0.521
same,glycan array binding signal (z-score),GlcNAc(b1-3)GalNAc,-0.06
same,glycan array binding signal (z-score),GlcNAc(b1-3)Man,-0.231
same,glycan array binding signal (z-score),[8],-0.017
same,glycan array binding signal (z-score),[9],-0.045
same,glycan array binding signal (z-score),[10],-0.244
same,glycan array binding signal (z-score),[11],-0.214
same,glycan array binding signal (z-score),GlcNAc(b1-4)GlcNAc,-0.246
same,glycan array binding signal (z-score),[12],-0.303
same,glycan array binding signal (z-score),[13],-0.054
same,glycan array binding signal (z-score),[14],-0.245
same,glycan array binding signal (z-score),[15],-0.21
same,glycan array binding signal (z-score),[16],-0.123
same,glycan array binding signal (z-score),GlcNAc(b1-6)GalNAc,-0.254
same,glycan array binding signal (z-score),[17],-0.314
same,glycan array binding signal (z-score),Kdn(a2-3)Gal(b1-3)GalNAc,-0.346
same,glycan array binding signal (z-score),Kdn(a2-3)Gal(b1-3)GlcNAc,0.013
same,glycan array binding signal (z-score),Kdn(a2-3)Gal(b1-4)Glc,-0.48
same,glycan array binding signal (z-score),Kdn(a2-3)Gal(b1-4)GlcNAc,-0.116
same,glycan array binding signal (z-score),[18],2.16
same,glycan array binding signal (z-score),Kdn(a2-6)Gal(b1-4)GlcNAc,-0.238
same,glycan array binding signal (z-score),[19],-0.318
same,glycan array binding signal (z-score),[20],-0.538
same,glycan array binding signal (z-score),Man(a1-2)Man(a1-3)Man,-0.036
same,glycan array binding signal (z-score),[21],-0.474
same,glycan array binding signal (z-score),[22],-0.253
same,glycan array binding signal (z-score),[23],-0.026
same,glycan array binding signal (z-score),[24],-0.194
same,glycan array binding signal (z-score),[25],-0.18
same,glycan array binding signal (z-score),[26],-0.45
same,glycan array binding signal (z-score),Man(a1-3)[Man(a1-6)]Man,-0.417
same,glycan array binding signal (z-score),[27],3.21
same,glycan array binding signal (z-score),[28],-0.327
same,glycan array binding signal (z-score),[29],-0.474
same,glycan array binding signal (z-score),[30],-0.349
same,glycan array binding signal (z-score),[31],-0.079
same,glycan array binding signal (z-score),Man(a1-6)Man,-0.622
same,glycan array binding signal (z-score),Man(b1-4)GlcNAc,-0.549
same,glycan array binding signal (z-score),MurNAc(b1-4)GlcNAc,0.053
